Test results: ChEMBL document CHEMBL4888484, “Replenishing the malaria drug discovery pipeline: Screening and hit evaluation of the MMV Hit Generation Library 1 (HGL1) against asexual blood stage Plasmodium falciparum ,using a nano luciferase reporter read-out” (2022)
Hit rate of the full screen: of about 150,000 compounds, about 540 (0.36%) showed an effect of 50% or more. This is one part of the list.

test system: Plasmodium falciparum; assay: Primary screen in NF54 nanoGlo assay, in single point, at 2uM, 72h; a lower Z score goes with more inhibition; type: functional, Erythrocyte; conditions: timepoint 72 hour

Compound	% Inhibition	Z score
Cc1ccccc1CN[C@@H](CCO)C(C)(C)C	-3%	0.53
Cc1ccc(-c2nc3ccc(C(=O)NCc4ccc(Cl)cc4)cc3nc2-c2ccc(C)cc2)cc1	3%	-0.53
COc1ccc(C(=O)C(=O)Nc2ncccc2C)cc1	-12%	1.66
COCCN1C(=O)CC[C@]2(CNC(=O)CC3CCCCC3)CCC[C@@H]12	2%	-0.23
O=C(NCc1nnc2n1CCCC[C@H]2C1CCOCC1)c1ccco1	-8%	1.29
CO[C@@H](C(=O)NCC1CCN(C(=O)c2n[nH]nc2C)CC1)c1ccccc1	-8%	1.43
Cc1ccc(C2(c3noc(CN4CCN(Cc5nccn5C)CC4)n3)CCCC2)cc1	-3%	0.34
O=C(O)C[C@@H]1CCN(CCCc2ccccc2)C[C@@H]1Cc1nc2ccc(F)cc2[nH]1	-16%	2.99
Cc1nc(-c2cc(S(=O)(=O)Nc3ccc(F)c(Cl)c3)c(C)s2)sc1C	-13%	1.62
N#Cc1cccc(C(=O)N2CCC(NC(=O)NC3CC3)CC2)c1	-6%	0.82
CCNC(=NCCOc1ncccc1Cl)NCC	5%	-0.91
CCn1nnc2cc(C(=O)N3CCCCCCC3)ccc21	-10%	1.9
O=C(NCC1(CO)CCCC1)c1ccc(CO)o1	3%	-0.49
CCn1nc(CCOC)nc1-c1ccc2nccnc2c1	-1%	0.14
CCc1nc(N)sc1C(=O)N1CC[C@](C)(O)[C@H](CC(C)C)C1	-2%	0.36
CCn1cc(CN2C[C@H]3CC[C@@H](C2)N(CC=C(C)C)C3)cn1	-2%	0.19
Cc1ccc(-n2ncc3c(=O)n(CC(=O)N(C)c4ccccc4)cnc32)c(C)c1	8%	-1.09
O=C(Nc1ccnn1C1CCN(CCCn2cccn2)CC1)C1CCCC1	9%	-1.09
Cn1nncc1C1(O)CN(c2nccc(Oc3ccccc3)n2)C1	-1%	0.16
Clc1ccc(CCNc2nc(-c3nnc(-c4ccccc4)o3)nc3ccccc23)cc1	1%	-0.1
COc1ccc(CN2CCC[C@H](n3c(C)cnc3-c3ccncc3)C2)cc1C	3%	-0.31
O=C(Cn1cccn1)N1CCCS(=O)(=O)C[C@H]1c1ccccc1	-11%	1.47
COCCN(C[C@H]1CCCN2CCCC[C@@H]12)C(=O)CCc1nc2ccccc2c(=O)[nH]1	-4%	0.46
O=C(c1nn(-c2ccccc2)c(=O)c2ccccc12)N1CCCC1	-2%	0.32
CCN(C(=O)c1cc(-c2ccc(F)cc2)[nH]n1)[C@H]1CCS(=O)(=O)C1	6%	-0.83
COC(=O)[C@H](C)N(Cc1cncnc1)C1CCC1	3%	-0.43
Cc1cc(CN2CCN(S(=O)(=O)N3CCC(C)CC3)CC2)on1	-5%	0.92

Compound	% Inhibition	Z score
Cc1ccc(CN2CCCn3nc(CN4CCNC(=O)C4)cc3C2)s1	2%	-0.19
COc1ccc(CN2C(=O)N[C@@H](CC(=O)N3CCN(c4ccccn4)CC3)C2=O)cc1	-5%	0.68
CO[C@H]1COC[C@@H]1NC(=O)Cc1cccs1	-2%	0.42
O=c1n(-c2ccc(Cl)cc2)c(=O)n2n1C1CCC2C1	-23%	2.71
O=C(c1ccc(-c2noc(C(F)(F)F)n2)cc1)N1CCC1	29%	-3.23
CCN(C(=O)c1ccco1)c1nc(-c2ccc(C3CCCCC3)cc2)cs1	-15%	2.29
CCOc1ccc(S(=O)(=O)N2CCc3c([nH]c4ccccc34)[C@H]2c2ccc(C)cc2)cc1	5%	-0.58
COCC(=O)N[C@H]1CN(c2nc(C)c(C)c(C)c2C#N)C[C@@H]1C1CC1	3%	-0.64
c1nc(N2C[C@@H]3CCCC[C@@H]32)c2cc[nH]c2n1	-7%	1.28
Cc1cc(NC(=O)c2ccc(-c3cc(C(F)(F)F)ccc3Cl)o2)no1	-13%	2.5
CN1C(=O)[C@]2(CCN(C(=O)Nc3ccc4c(c3)OCCO4)C2)c2ccccc21	9%	-1.17
O=C(Nc1cnn2ccccc12)[C@H]1CC[C@H](Nc2cnccn2)CC1	9%	-1.19
CN(C(=O)c1ccccc1C(F)(F)F)C1COCC1O (stereo unspecified)	-11%	1.43
COc1ccc(C(=O)NCCc2nc(C(C)C)cs2)o1	-8%	1.53
Cc1ccc(-c2n[nH]c(NS(=O)(=O)c3c(C)nn(C)c3C)c2C)o1	29%	-3.88
COc1ccc([C@H]2C[C@H]3CC[C@@H](C2)N3C(=O)Cc2cc(C)no2)cc1	25%	-2.89
CC(NC(=O)[C@@H]1CC[C@H](C(=O)O)C1)c1ncc(-c2ccccc2)o1 (stereo partly specified)	-10%	1.84
CCCCc1noc(CN(C)CCN2CCCC2)n1	-8%	1.07
O=C(C1CCC1)N(CCc1ccc(F)cc1)Cc1cc2ccc(Cl)cc2nc1N1CCC(O)CC1	18%	-2.39
CC(C)(C)OC(=O)N1C[C@@H](F)C[C@@H]1C(N)=O	-2%	0.28
CC(C)Nc1nnccc1C(=O)N1CCC[C@H](C(F)(F)F)C1	-6%	0.67
Cc1cccc(C(=O)N2CC3(C[C@H](N4CCCCC4)CO3)C2)c1	-7%	1.1
Cc1cc(N2CCN(C3CCC3)CC2)n[nH]1	-3%	0.34
Cc1cc(N2C[C@@H](CN(C)CCO)[C@@H](CO)C2)nc(-c2ccccc2)n1	-9%	1.82
Cn1c(-c2cccc(C(=O)NCc3ccc(F)cc3)c2)nc2cccnc21	-9%	1.16
C[C@H](NC(=O)c1cc(C(F)(F)F)n[nH]1)c1n[nH]c(N)n1	-2%	0.47
